# Experimental data from PMC6222422, “Synthesis and Biological Evaluation of Novel Indole-Derived Thioureas” (Molecules : A Journal of Synthetic Chemistry and Natural …, 2018).
# System: Gram-positive cocci, Gram-negative rods and Candida albicans
# Experiment: In vitro antimicrobial screening (disc diffusion, MIC)
# Settings: SAR discussion
row,SMILES,antimicrobial activity (in words)
1,"CCNC(=S)NCCc1c[nH]c2ccccc12 [Compound 22, 1-(2-(1H-Indol-3-yl)ethyl)-3-ethylthiourea]",block both antimicrobial and antiviral activity
2,"S=C(NCCc1c[nH]c2ccccc12)NC1CCCCC1 [Compound 9, 1-(2-(1H-Indol-3-yl)ethyl)-3-cyclohexylthiourea]",block both antimicrobial and antiviral activity
3,"S=C(NCCc1c[nH]c2ccccc12)Nc1ccccc1Br [Compound 15, 1-(2-(1H-Indol-3-yl)ethyl)-3-(2-bromophenyl)thiourea]",moderate antimicrobial activity
4,"C=C(C)CNC(=S)NCCc1c[nH]c2ccccc12 [Compound 19, 1-(2-(1H-Indol-3-yl)ethyl)-3-(2-methylallyl)thiourea]",moderate antibacterial activity
5,"Cc1ccc(NC(=S)NCCc2c[nH]c3ccccc23)cc1Cl [Compound 23, 1-(2-(1H-Indol-3-yl)ethyl)-3-(3-chloro-4-methylphenyl)thiourea]",disappearance of antimicrobial activity
6,"Fc1ccc(NC(=S)NCCc2c[nH]c3ccccc23)cc1Cl [Compound 28, 1-(2-(1H-Indol-3-yl)ethyl)-3-(3-chloro-4-fluorophenyl)thiourea]",disappearance of antimicrobial activity
7,"CNC(=S)NCCc1c[nH]c2ccccc12 [Compound 25, 1-(2-(1H-Indol-3-yl)ethyl)-3-methylthiourea]",block both antimicrobial and antiviral activity
